# Source: PubChem BioAssay AID1508642 (National Center for Advancing Translational Sciences (NCATS), 2021)
# Hit rate of the full screen: of about 43,000 compounds, about 200 (0.47%) were called active. Roughly 12% stayed inconclusive and do not appear here. Calls follow the shape of the dose curve; as a rule, active = well fitted cell-killing curve with a large enough effect; inconclusive = small, poorly fitted or top-dose-only effect, or effect the other way; inactive = flat fitted curve, though single readings scatter. This is one part of the list.
# Assay: Cell viability qHTS assay in S16 Pmp22-F2sN cells; also: nearly all actives have a fitted effect of over 65% in size
# Details: S16 Pmp22-F2sN Schwann cells viability, CellTiter-Glo, 24 h; series mostly up to 57.5 µM; activity change, negative = cytotoxicity: at the top concentration
# In short: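 S16 Pmp22-F2sN Schwann cells (500-1,000/well) in phenol-red-free DMEM with 10% FBS received 23 nL compound by pin tool for 24 h at 37 °C. Viability was then read as CellTiter-Glo luminescence after 15 min at room temperature.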
# % is scaled to controls: 0 for no effect and ±100 for the full control effect.
row,SMILES,"activity change, negative = cytotoxicity"
1,Cc1ccc(CN2CCCn3nc(C(=O)NCc4ccc(N(C)C)cc4)cc3C2=O)cc1,inactive: -8.91%
2,COc1ccc(CCNc2nc3c(-c4cccc(C(F)(F)F)c4)nnn3c3ccccc23)cc1OC,inactive: 11.5%
3,CCOc1ccc(NC(=O)c2cc3cc(C)ccc3n2C)cc1,inactive: 0.578%
4,CC(C)CNC(=O)Nc1cc(C(=O)NCc2ccc(C(C)C)cc2)ccc1N1CCCC1,inactive: -2.4%
5,CC1CCN(c2nc(-c3ccc(C(C)(C)C)cc3)nc3ccccc23)CC1,inactive: -2.45%
6,CCC(=O)N1CCc2cc(S(=O)(=O)NC(C(=O)NCCc3cccc(C)c3)C(C)C)ccc21 (centres undefined),inactive: -1.18%
7,CN(Cc1ccco1)S(=O)(=O)c1nnc(NC(=O)c2ccccc2Cl)s1,inactive: -2.34%
8,Cc1nn(C)c(C)c1CCNC(=O)Nc1ccccc1C(F)(F)F,inactive: -16.6%
9,COc1ccc(N2CC(NC(=O)/C=C\c3ccccc3)CC2=O)cc1OC (centres undefined),inactive: 14.9%
10,CCN(CC)c1nn2c(=O)c(C(=O)NCc3ccc(N(C)C)cc3)cnc2s1,inactive: -1.58%
11,Cc1ccc(C2c3[nH]c4ccccc4c3CCN2C(=O)CSCc2ccc(F)cc2)cc1 (centres undefined),inactive: -18.6%
12,O=C(NCCc1csc(-c2ccc(F)cc2)n1)c1cccc(F)c1,inactive: 24.9%
13,COc1ccccc1CNC(=O)C1CCN(S(=O)(=O)c2cn(C)cn2)CC1,inactive: 6.66%
14,CCc1ccccc1N(C)C(=O)c1sc2nc3n(c(=O)c2c1C)CCCCC3,inactive: -5.44%
15,COc1ccc(C(=O)CCC(=O)Nc2ccc(C)c(Cl)c2)cc1,inactive: -0.182%
16,CCc1cccc(C)c1NC(=O)c1cnn(-c2ccc(OC)cc2)c1C1CCN(C(=O)OC(C)(C)C)CC1,inactive: -11.4%
17,COc1ccc(NC(=O)c2nc(-c3ccc(C)cc3)n3c2CCCCC3)c(OC)c1,inactive: 8.28%
18,Cc1ccc(SCC(=O)Nc2ccc3oc(-c4ccccc4F)nc3c2)cc1,inactive: 4.59%
19,CCOC(=O)c1ccccc1NC(=O)c1cnc(N2CCOCC2)c2ccccc12,inactive: -0.581%
20,Cc1cc2oc(C(=O)N(Cc3ccco3)Cc3ccccc3Cl)c(C)c2cc1C,inactive: -20%
21,CC1CCc2onc(C(=O)N3CCN(c4cccc(Cl)c4)CC3)c2C1 (centres undefined),inactive: -13.4%
22,CC(C)Oc1ccc(CNC(=O)c2ccc(NC(=O)N3CC(C)Sc4ccccc43)cc2)cc1 (centres undefined),inactive: -0.381%
23,O=C(/C=C/c1ccccc1)Nc1nc2n(n1)C(c1ccc(F)cc1)C=C(c1ccccc1)N2 (centres undefined),inactive: 1.99%
24,CCOC(=O)CNC(=O)c1cc2c(=O)n3cccc(C)c3nc2n1C,inactive: 11.1%
25,COc1ccc(C(=O)Nc2ccc3oc(-c4cccnc4)nc3c2)cc1OC,inactive: 22.7%

row,SMILES,"activity change, negative = cytotoxicity"
1,CCOc1ccc(CNC(=O)c2ccc3c(c2)nc2n3CCCCC2)cc1,inactive: -0.0084%
2,COCCn1c(=O)[nH]c2cc(C(=O)Nc3ccc(OC)cc3)ccc2c1=O,inactive: 2.67%
3,CCCCCn1c(=O)[nH]c2cc(C(=O)NC(C)CC)ccc2c1=O (centres undefined),inactive: 17%
4,CC(C)(C)c1ccc(OCCOCCn2c(-c3ccc(Cl)cc3)nc3ccccc3c2=O)cc1,inactive: -12%
5,O=C(COC(=O)c1cccc(NC(=O)c2ccc(Br)cc2)c1)c1ccc(Cl)cc1,inactive: 0.278%
6,CCn1c2ccccc2c2cc(NC(=O)COc3cc(C)ccc3C)ccc21,inactive: 6.9%
7,Cc1cccc(Cn2c(COc3ccccc3)nc3ccccc32)c1,inactive: 0.0509%
8,Cc1ccc2c(c1)cc(C(=O)NCc1ccccc1C)n2C,inactive: 7.49%
9,CCc1cnc2c(c1SCC(=O)Nc1ccc(C(=O)OC)cc1)c(=O)n(C)c(=O)n2C,inactive: -24.7%
10,CC(C)Oc1ccc(CNC(=O)C2CCN(Cc3cc4ccccc4n3Cc3ccccc3)CC2)cc1,inactive: -2.29%
11,O=C(CSc1nc(=O)n(Cc2ccco2)c2c1CCC2)NCc1ccc(Cl)cc1,inactive: 13.2%
12,Cc1ccc(NC(=O)CCn2c(=O)c3cccn3c3ccccc32)cc1Cl,inactive: -1.62%
13,COc1ccc(N2CC(NC(=O)C(=O)c3c(C)[nH]c4ccccc34)CC2=O)cc1 (centres undefined),inactive: 1.59%
14,COc1cc(OC)c(NC(=O)Cn2cnc3sc(C)c(S(=O)(=O)N4CCC(C)CC4)c3c2=O)cc1Cl,inactive: -11.5%
15,CCN(Cc1ccccc1)C(=O)Cn1c(=O)n(-c2ccc(Cl)c(Cl)c2)c(=O)c2c(C)c(C(=O)N(C)C)sc21,inactive: -3.28%
16,COc1ccccc1CNC(=O)CSc1nc(=O)[nH]c2c1CCCC2,inactive: 3.43%
17,Cc1cc(C)n(-c2nc3ccccc3nc2Nc2cc(Cl)ccc2C)n1,inactive: 5.03%
18,Cc1cc(C)c2nc(N(Cc3cccnc3)C(=O)Cc3ccccc3)sc2c1,inactive: -9.16%
19,Cc1cc(NC(=O)Nc2nnc(N3CCCCC3)s2)ccc1Br,inactive: -0.192%
20,NS(=O)(=O)c1ccc(NC(=O)c2csnn2)cc1,inactive: 6.18%
21,COc1ccc(OC)c(NC(=O)Cn2cnc3onc(-c4ccc(Cl)cc4)c3c2=O)c1,inactive: -20.8%
22,COc1ccc(NC(=O)CN(C)S(=O)(=O)c2ccc3c(c2)c(=O)n(C)c(=O)n3C)cc1,inactive: -0.785%
23,Cc1cc(C)cc(NC(=O)COCc2cc(-c3ccc4c(c3)OCO4)on2)c1,inactive: 3.73%
24,Cc1cc2c(cc1S(=O)(=O)NCc1ccccc1Cl)OCC(=O)N2,inactive: -0.496%
25,COc1cccc(-c2nc(CS(=O)(=O)CC(=O)NCCc3ccc(Cl)cc3)c(C)o2)c1,inactive: -4.26%

row,SMILES,"activity change, negative = cytotoxicity"
1,CC1CCCCN1C(=O)CSc1c2c(nc3cc(Cl)ccc13)CCCC2 (centres undefined),inactive: -3.23%
2,COc1cccc(N2CCN(C(=O)C3CCN(S(=O)(=O)c4cn(C)cn4)CC3)CC2)c1,inactive: 19.2%
3,CCOCCn1c(=O)c2c(nc3n2CCN3c2ccc(C)c(C)c2)n(C)c1=O,inactive: -0.0731%
4,CCc1ccc(-n2nc(CO)c(C(=O)NCc3cccs3)n2)cc1,inactive: -16.3%
5,COc1ccc(-c2nc3ccc(Cl)cn3c2Nc2ccc(C)cc2)cc1,inactive: -4.28%
6,COc1ccc(OCC2c3cc(OC)c(OC)cc3CCN2C(=O)c2c(F)cccc2F)cc1 (centres undefined),inactive: -2.93%
7,CCCCNC(=O)c1cn(C)c2ccc(S(=O)(=O)N3CCCC3)cc2c1=O,inactive: -19%
8,COc1ccc(OC)c(NC(=O)CCNC(=O)Cn2cnc3ccccc3c2=O)c1,inactive: 5.41%
9,Fc1ccc(Nc2c(-c3ccccn3)nc3ccc(Cl)cn23)cc1,inactive: -0.911%
10,O=C(NCCc1ccccc1)c1nn(-c2ccccc2Cl)nc1CO,inactive: 0.561%
11,COc1cccc(NC(=O)Cc2csc(COc3cccc(C)c3)n2)c1,inactive: 13.9%
12,COc1ccc(CCNC(=O)c2cc(=O)[nH]c3ccc(S(=O)(=O)N4CCCCC4C)cc23)cc1OC (centres undefined),inactive: 8.87%
13,CCOCCCNC(=O)c1c(NC(=O)c2nc(SC)ncc2Cl)sc2c1CCCC2,inactive: 8.34%
14,Cc1cn2c(=O)cc(COC(=O)c3ccc(NC(=O)C(C)Oc4ccccc4)cc3)nc2s1 (centres undefined),inactive: 9.16%
15,COCCn1c(C)cc(O)c(C(c2ccc(OC)cc2)N2CCN(c3ccccc3)CC2)c1=O (centres undefined),inactive: -0.47%
16,Cc1ccc(C)c(-n2nnc(C(=O)Nc3ccc(Br)cc3)c2C)c1,inactive: -29.7%
17,Cc1ccc(C)c(N2CCN(C(=O)CN3C(=O)COc4ccc(S(=O)(=O)N5CCC(C)CC5)cc43)CC2)c1,inactive: -0.926%
18,COc1ccc(NC(=O)c2c(C)oc3ccc(O)c(CN4CCCCCC4)c23)cc1,inactive: -9.4%
19,CCn1nnc2cc(C(=O)Nc3ccc(OC)cc3)ccc21,inactive: 6.3%
20,Cc1ccc(N2CCN(S(=O)(=O)c3ccc(-n4cnnn4)cc3)CC2)c(C)c1,inactive: 0.108%
21,Cc1ccc(OCC(=O)Nc2ccc3c(c2)sc(=O)n3C)cc1,inactive: -1.51%
22,CCOC(=O)c1c(NC(=O)COc2ccc(CC)cc2)sc2c1CCCC2,inactive: 13.2%
23,Cc1ccc(N2C(=O)CS(=O)(=O)C23C(=O)N(Cc2ccccc2C)c2ccccc23)cc1Cl (centres undefined),inactive: 5.77%
24,CN1CCN(C(=O)Cn2c(-c3cccs3)cc3ccccc32)CC1,inactive: -1.63%
25,COc1ccc(NC(=O)Cn2nc(-c3ccccc3)c3cnc4ccc(C)cc4c32)cc1,inactive: -5.92%

row,SMILES,"activity change, negative = cytotoxicity"
1,CCCNC(=O)c1ccc2c(c1)nc(C)n2-c1cccc(C)c1,inactive: -24.1%
2,Cc1ccc2c(=O)c(C(=O)c3ccccc3)cn(CC(=O)Nc3ccc(C)c(Cl)c3)c2n1,inactive: -27.9%
3,Cc1nn(C)c2c1c(C(F)(F)F)cc(=O)n2C(C)C(=O)NCCC(C)C (centres undefined),inactive: 6.61%
4,Cc1ccc(-c2nc(C(=O)N3CCN(c4ccccc4)CC3)c3n2CCCCC3)cc1,inactive: 20.1%
5,COc1ccc(NC(=O)C(NC(=O)C2CCC(C)CC2)C(C)C)cc1 (centres undefined),inactive: 9.22%
6,CCC(Sc1ncccc1C(=O)Oc1ccccc1Cl)C(=O)Nc1ccccc1OC (centres undefined),inactive: -3.23%
7,COc1cccc(Cn2ccn(-c3ccc(F)cc3)c(=O)c2=O)c1,inactive: 14.8%
8,O=C(Nc1ccc(Cl)cc1)N1CCC(CN2CCCCCC2)CC1,inactive: -1.9%
9,Cc1ccc(C(=O)c2oc3ccccc3c2NC(=O)c2cc(=O)c3cc(C)ccc3o2)cc1,inactive: 3.84%
10,COC(=O)c1ccc(-n2nnc(-c3nc(-c4ccccc4Cl)no3)c2C)cc1,inactive: -2.02%
11,CCNC(=O)C1CCCN(c2ncnc3onc(C)c23)C1 (centres undefined),inactive: -1.23%
12,COc1ccc(NC(=O)Cn2cc(C(=O)c3ccncc3)c(=O)c3cc(C)ccc32)cc1Cl,inactive: -3.66%
13,Cc1cccc(Cn2c(SCc3ccc(C(=O)NCc4ccccc4)cc3)nc3cccnc32)c1,inactive: -28.2%
14,Cc1nc(N2CCOCC2)c2c(C(=O)N(C)Cc3ccccc3)c(C)oc2n1,inactive: 0.998%
15,CCOc1cccc2sc(N3CCN(C(=O)C(C)(C)C)CC3)nc12,inactive: 7%
16,CCOC(=O)C1CCN(c2cc(C)nc3c(-c4ccccc4OC)c(C)nn23)CC1,inactive: 9.61%
17,O=C(Cn1nc(-c2ccccc2)c2cnc3ccc(F)cc3c21)NC1CCCC1,inactive: 4.11%
18,O=C(Nc1nnc(S(=O)(=O)N2CCCCCC2)s1)c1ccccc1F,inactive: 3.4%
19,Cc1ccc(-c2nnc(SCC(=O)N3CCCc4ccccc43)o2)cc1,inactive: 2.73%
20,Cc1cc(NC(=O)CSc2nc3c([nH]c4ccccc43)c(=O)n2-c2ccccc2F)no1,inactive: 16.7%
21,CC(C)(CC(=O)OCC(=O)Nc1ccccc1F)CC1=NS(=O)(=O)c2ccccc2N1,inactive: 18%
22,O=C(COc1ccc([N+](=O)[O-])cc1)N1CCC(c2nc3ccccc3s2)CC1,inactive: -14.5%
23,COc1cc(NC(=O)c2ccc3c(Cl)c4c(nc3c2)CCC4)cc(OC)c1OC,inactive: 28.2%
24,CC(=O)c1cccc(-n2c(=O)c3c4c(sc3n(CC(=O)Nc3ccccc3F)c2=O)CN(C(C)=O)CC4)c1,inactive: 0.332%
